# In all, about 43,000 compounds went through this assay and about 200 (0.47%) were called active. About 12% were inconclusive and are not listed. Calls follow the shape of the dose curve; as a rule, active = well fitted cell-killing curve with a large enough effect; inconclusive = small, poorly fitted or top-dose-only effect, or effect the other way; inactive = flat fitted curve, though single readings scatter. The list shows a part of the results.
# Assay: Cell viability qHTS assay in S16 Pmp22-F2sN cells; also: nearly all actives have a fitted effect of over 65% in size
# Conditions: S16 Pmp22-F2sN Schwann cells (luciferase reporters placed in the Pmp22 gene) viability, CellTiter-Glo, 24 h; series mostly up to 57.5 µM; activity change, negative = cytotoxicity: at the top concentration
# Method in brief: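 CellTiter-Glo counter-screen, qHTS, 1536-well. Cells: S16(c9) Pmp22-F2sN, 500-1,000/well in DMEM + 10% FBS. Cpd 23 nL pin transfer, 24 h, 37C/5% CO2. Read: luminescence, CCD imager.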
# % is scaled to controls: 0 for no effect and ±100 for the full control effect.
row,Compound,"activity change, negative = cytotoxicity"
1,COc1cc(C(=O)NCC(c2ccc(Cl)cc2)N2CCOCC2)cc(OC)c1OC (stereo not given),inactive: 0.597%
2,O=c1cc(-c2ccc(F)cc2)nc(SCc2nc(-c3ccc(Cl)cc3)no2)[nH]1,inactive: -1.81%
3,CCOC(=O)c1c(C)[nH]c(C)c1S(=O)(=O)NCC(=O)NCc1cccc(C)c1,inactive: -2.12%
4,CCOC(=O)c1ccc(CN(Cc2ccc(Br)cc2)S(=O)(=O)c2cccc(Cl)c2C)cc1,inactive: -1.13%
5,CC(=O)c1ccc(NC(=O)CSc2nc(=O)n(Cc3ccncc3)c3c2CCC3)cc1,inactive: 2.08%
6,CCS(=O)(=O)c1ncc(N(Cc2ccco2)Cc2ccccc2F)c(C(=O)Nc2cccc(Cl)c2)n1,inactive: 6.38%
7,O=C(Cn1c(=O)nc(-c2ccccc2)c2ccccc21)NCc1ccccc1Cl,inactive: 6.48%
8,Cc1ccc(N2CCN(C(=O)c3cn(C)c4ccc(S(=O)(=O)N(C)C)cc4c3=O)CC2C)cc1 (stereo not given),inactive: 6.34%
9,CCOC(=O)CC(NC(=O)Cn1nnc(-c2ccccc2F)n1)c1ccccc1Cl (stereo not given),inactive: 2.8%
10,CCc1ccc(C2C(C(=O)Nc3ccccc3C)=C(C)Nc3nc(SCc4cccc(OC)c4)nn32)cc1 (stereo not given),inactive: -3.01%
11,CC1CCCCN1CCCNC(=O)CN1C(=O)c2cccnc2Oc2ccccc21 (stereo not given),inactive: 17.2%
12,COc1ccccc1NC(=O)C1=C(C)Nc2c(C(=O)Nc3cccc(C)c3)cnn2C1c1ccccc1Cl (stereo not given),inactive: -3.62%
13,Cc1ccc(Cl)cc1NC(=O)CCCn1c(=O)c2cccn2c2cccnc21,inactive: 16.4%
14,Cc1ccccc1C(=O)N(Cc1sccc1C)C1CCS(=O)(=O)C1 (stereo not given),inactive: 2.11%
15,COc1ccc(CCNC(=O)c2ccc(Cn3c(=O)c4ccccc4n(CC(=O)C(C)(C)C)c3=O)cc2)cc1OC,inactive: 20%
16,COc1cc(NC(=O)CCn2nc(C)c(S(=O)(=O)N3CCCCC3)c2C)cc(OC)c1OC,inactive: -10.4%
17,COc1ccc(-c2nc3n(n2)C(c2ccc(OC)c(OC)c2)C(C(=O)Nc2cccnc2)=C(C)N3)cc1 (stereo not given),inactive: 3.45%
18,CCN1CCN(C(c2ccc(SC)cc2)c2c(O)cc(C)n(CCOC)c2=O)CC1 (stereo not given),inactive: 2.11%
19,CCCCN(CC)C(=O)C1CCCN(c2ncnc3onc(C)c23)C1 (stereo not given),inactive: -12%
20,O=c1oc2ccccc2c(N2CCN(c3ccccc3F)CC2)c1CN1CCCC1,inactive: 18.6%
21,Cc1ccc(S(=O)(=O)C(CNC(=O)C(=O)NCCc2ccccc2)c2cccs2)cc1 (stereo not given),inactive: -10.4%
22,CCOc1ccc(C2CC(=O)c3c([nH]c(C(=O)OCC4CCCCC4)c3C)C2)cc1 (stereo not given),inactive: -1.35%
23,COCCCNC(=O)c1nn(-c2ccc(C)cc2)nc1CO,inactive: 0.315%
24,CCOc1ccccc1NC(=O)CSc1nccn1-c1cccc(C)c1,inactive: -3.01%

row,Compound,"activity change, negative = cytotoxicity"
1,COc1ccc2c(Sc3ccc(C)cc3)c(C(=O)NC(C)C)[nH]c2c1,inactive: -1.17%
2,CCOc1ccc(-n2c(=O)c3c(C)c(C)sc3n(CC(=O)NCCc3ccccc3)c2=O)cc1,inactive: -4.02%
3,O=C(CN1C(=O)CSc2ccc(S(=O)(=O)N3CCCC3)cc21)Nc1cccc(Cl)c1,inactive: -3.03%
4,COc1cccc(NC(=O)C(Cc2ccccc2)NS(=O)(=O)c2ccc3c(c2)c(=O)n(C)c(=O)n3C)c1 (stereo not given),inactive: 24.3%
5,Cc1cccc(CNC(=O)Cn2ccc3cc(S(=O)(=O)N4CCCCCC4)ccc32)c1,inactive: -12.6%
6,CCCc1cc(=O)oc2cc(C)c3c(-c4ccccc4)coc3c12,inactive: 17.9%
7,Cc1ccc(Nc2c(C(C)C)c(C)c(C#N)c3nc4ccccc4n23)cc1,inactive: -0.665%
8,CCCNC(=O)CN1C(=O)CSc2ccc(S(=O)(=O)N3CCC(C)CC3)cc21,inactive: -1.03%
9,Cc1ccccc1-c1noc(-c2ccc(NCc3ccco3)c([N+](=O)[O-])c2)n1,inactive: 10.8%
10,CCN(CC)C(=O)C1CCN(S(=O)(=O)c2c(C)noc2/C=C/c2cccc(OC)c2)CC1,inactive: -13.8%
11,CCC(C)NC(=O)CCCc1nnc2n(CC(C)C)c(=O)c3sccc3n12 (stereo not given),inactive: 16.7%
12,CN(C)CCNC(=O)c1ccc(-c2nn(C)c(=O)c3ccccc23)cc1,inactive: -0.625%
13,CSc1ccc(-c2nc3cccc(C)n3c2Nc2ccc(Cl)cc2)cc1,inactive: -5.72%
14,COc1ccccc1N1C(=O)N(CC(=O)C(C)(C)C)c2ccccc2S1(=O)=O,inactive: 6.34%
15,O=C(O)c1ccc(NC(=O)c2cc(S(=O)(=O)N3CCCCC3)c(Cl)cc2Cl)cc1,inactive: 12.1%
16,Cc1cccc(C(=O)NNc2ncnc3c2cnn3-c2ccc(C)cc2C)c1,inactive: 18.4%
17,COc1cccc(C(=O)Nc2nnc(S(=O)(=O)N3CCCC3)s2)c1,inactive: -8.49%
18,Cc1ccc(Cn2cnc3nc4c(cc3c2=O)CC(C)CC4)cc1 (stereo not given),inactive: -1.01%
19,CC(C)c1ccc(S(=O)(=O)c2cnc(SCC(=O)Nc3ccc4c(c3)OCCO4)[nH]c2=O)cc1,inactive: -2.88%
20,CCOc1ccc(CCNC(=O)c2nn(C)c3c2CSc2ccccc2-3)cc1,inactive: 2.65%
21,CCOC(=O)c1c(NC(=O)C2c3ccccc3Oc3ccccc32)sc(C)c1CC,inactive: -0.825%
22,O=C(NCc1ccc(F)cc1)C1(c2cccs2)CCOCC1,inactive: 11.7%
23,Cc1ccc(OCC(=O)Nc2nnc(S(=O)(=O)N3CCCCCC3)s2)cc1,inactive: -6.73%
24,COc1cc(Nc2nc3c(S(=O)(=O)c4ccc(C)c(C)c4)nnn3c3ccsc23)cc(OC)c1,inactive: 8.65%

row,Compound,"activity change, negative = cytotoxicity"
1,CC(C)(C)C1CCc2nc(NC(=O)Cc3ccccc3)sc2C1 (stereo not given),inactive: -3.35%
2,CCn1c(=O)cc(OCC(=O)N(C)c2cc(Cl)ccc2C)c2ccccc21,inactive: -5.3%
3,Cc1ccc(-c2cn3c(n2)sc2cc(C(=O)NCCCc4ccccc4)ccc23)c(C)c1,inactive: -25.7%
4,CCCCN(CCCNC(=O)c1cc(Nc2ccc(OC)c(OC)c2)nc2ccccc12)c1ccccc1,inactive: 16.8%
5,CC1CCCN(S(=O)(=O)c2ccc3c(c2)c(=O)nc2ccccn23)C1 (stereo not given),inactive: 4.26%
6,CCOc1ccc(CNCc2c(C(=O)O)c(C)n(Cc3c(F)cccc3Cl)c2C)cc1OC,inactive: -5.9%
7,COc1ccccc1-c1noc(-c2ccc(NCC3CCCO3)c([N+](=O)[O-])c2)n1 (stereo not given),inactive: -19.7%
8,Cc1ccc2oc(=O)n(CCCOc3ccccc3Cl)c2c1,inactive: -6.43%
9,Cc1cc(C)c(S(=O)(=O)NCC(c2ccc(N(C)C)cc2)N2CCOCC2)c(C)c1 (stereo not given),inactive: -0.399%
10,CCc1cccc(NC(=O)CN(C)S(=O)(=O)c2ccc3c(c2)CCCN3C(C)=O)c1,inactive: -7.92%
11,CCOC(=O)c1cnc2c(C)c(Cl)ccc2c1Nc1ccc(N2CCOCC2)cc1,inactive: 2.89%
12,CC(CCc1ccccc1)NC(=O)Cn1c(=O)nc(-c2ccccc2)c2ccccc21 (stereo not given),inactive: 5.4%
13,Cc1ccccc1Nc1c(-c2cccnc2)nc2ccc(Cl)cn12,inactive: -19%
14,CCc1nn2c(=O)c(S(=O)(=O)Nc3ccc(Cl)cc3)c(C)nc2s1,inactive: -7.08%
15,CCCCN(C)CCNC(=O)CN1C(=O)CSc2ccc(S(=O)(=O)N3CCOCC3)cc21,inactive: 18.7%
16,Cc1cc(Nc2cccc(C(F)(F)F)c2)nc2ccc(NC(=O)c3cccc(Cl)c3)cc12,inactive: -19.5%
17,O=C(Cn1cc(S(=O)(=O)c2ccccc2)c(=O)c2cc(Cl)ccc21)Nc1ccc2c(c1)OCO2,inactive: 9.15%
18,O=S(=O)(c1cccc2ccccc12)N1CCN(c2ccc(Cl)c(Cl)c2)CC1,inactive: 2.28%
19,COc1ccc(NC(C)=O)cc1NC(=O)CN1CCN(c2ccc(F)cc2)CC1,inactive: 9.46%
20,CCOc1cc(C(=O)NCC(c2ccc(N(C)C)cc2)N2CCOCC2)cc(OCC)c1OCC (stereo not given),inactive: 13.4%
21,Cc1ccc(CNC(=O)c2ccc(CS(=O)Cc3cccc(Cl)c3)o2)cc1 (stereo not given),inactive: 5.55%
22,COc1ccc(-c2cc(C(F)(F)F)nc(SCC(=O)NCC(C)C)n2)cc1OC,inactive: 2.41%
23,COc1ccccc1NC(=O)C1=C(C)Nc2nc3ccccc3n2C1c1cccc(OC)c1OC (stereo not given),inactive: -19.4%
24,Cc1ccn2c(=O)cc(COc3cccc(NC(=O)Nc4cccc(Cl)c4C)c3)nc2c1,inactive: 7.96%

row,Compound,"activity change, negative = cytotoxicity"
1,COc1ccc(C)cc1Nc1cc(C)nc(C)n1,inactive: -1.74%
2,O=C(CN1C(=O)c2cccnc2Oc2ccc(Cl)cc21)Nc1cccc(C(F)(F)F)c1,inactive: -8.97%
3,CC(C)Oc1ccc(C(=O)Nc2c(C(=O)Nc3cccc(F)c3)oc3ccccc23)cc1,inactive: 13.8%
4,O=C(CCn1ccc2cc(S(=O)(=O)N3CCCC3)ccc21)NCc1ccccc1Br,inactive: -19.4%
5,COc1ccc(CNC(=O)CCc2c(C)c3cc4c(C)c(C)oc4cc3oc2=O)cc1OC,inactive: -5.66%
6,CC(C)c1ccc(OCC(=O)N(Cc2cccs2)C2CCS(=O)(=O)C2)cc1 (stereo not given),inactive: -8.37%
7,CCc1nc2nc(C)cc(Nc3cccc(C)c3C)n2n1,inactive: -19.3%
8,CCc1ccc(NC(=O)CN2C(=O)C3(SCC(=O)N3c3ccc(F)c(F)c3)c3ccccc32)cc1 (stereo not given),inactive: -12.3%
9,Cc1ccc(N2CC(C(=O)Nc3ccc(N(C)C)cc3)CC2=O)cc1Cl (stereo not given),inactive: -1.03%
10,Fc1ccccc1N1CCN(c2nc3ccccc3c3nc(-c4ccccc4)nn23)CC1,inactive: -10.2%
11,CSc1ccc(-c2nnc(NC(=O)c3ccc4c(c3)OCCO4)o2)cc1,inactive: -21.3%
12,Cc1nnc(N2CCC(C(=O)NCCC(C)C)CC2)c2nn(-c3ccc(Cl)cc3)c(C)c12,inactive: -17.3%
13,CCOc1cc(Cl)c(S(=O)(=O)n2ccnc2)cc1Cl,inactive: 5.68%
14,CCC(C(=O)N1CCN(c2ccccc2)CC1)n1c(C)c2cnn(-c3ccccc3)c(=O)c2c1C (stereo not given),inactive: 4.89%
15,O=C(NC1CCCC1)c1ccc2c(=O)n(Cc3ccccc3)c(SCc3cccc(F)c3)nc2c1,inactive: 1.33%
16,CCN(CC)c1ccc(NC(=O)CCCN2C(=O)C(c3ccccc3)Oc3cccnc32)c(C)c1 (stereo not given),inactive: 8.23%
17,COC(=O)c1ccc(NC(=O)CN2C(=O)CC(c3ccccc3)Sc3ccccc32)cc1 (stereo not given),inactive: 18.9%
18,Cc1cc(C)n(C(C)CC(=O)Nc2ccc(C)c(N(C)C)c2)n1 (stereo not given),inactive: 2.05%
19,CCc1ccc(NC(=O)Cn2ccn(-c3ccc(C)c(C)c3)c(=O)c2=O)cc1,inactive: -4.95%
20,Cc1ccc(S(=O)(=O)c2nc(S(=O)(=O)c3ccccc3)sc2NCCCOC(C)C)cc1,inactive: -18.4%
21,COc1ccc(NC(=O)c2oc3ccccc3c2NC(=O)Cc2coc3c(C)c(C)ccc23)cc1,inactive: 8.53%
22,COc1ccccc1-c1cc(C(=O)NCc2ccccc2)c2c(-c3ccc(C)cc3)[nH]nc2n1,inactive: -2.01%
23,COc1ccc(-c2nc3cc(NC(=O)CSc4ccc(C)cc4)ccc3o2)cc1,inactive: 22.5%

# From PubChem BioAssay AID1508642 (National Center for Advancing Translational Sciences (NCATS), 2021)
